Test results: US11707511B2, “Vaccine compositions and methods of using the same” (The Board of Supervisors of Louisiana State University and …, priority 2017, dated 2023)
“Also recorded” adds a separate entry of the source.

How the values were obtained:
C. auris AR-0386 = assay: Passive transfer of mAbs or two mAbs in combination in A/J mouse model of invasive C. auris infection; assay type: in vivo, Candida auris
Method: A. Complement protein C5-defecient A/J mice were treated with one of the five mAb or with DPBS as a vehicle control. The following day, mice were challenged with 1×10^8 C. auris cells/100 ul DPBS dose per mouse. […] B. Fungal burdens in the kidneys (top), heard (center), and brain (bottom).
Identified protective mAbs were obtained by use of standard hybridoma technique and purified by use of protein A/G. A/J mice were given an i.p. dose of either single mAb or two mAbs in combination 24 hours before hematogensous challenge with a lethal dose (2×108) of C. auris AR-0386 live cells. Mice received either 9G2F5 alone or 6H1G8 alone or 9F2G5 and 3H7E3 in combination had 40% survival rate respectively, with prolonged survival as compared to control animals that received DPBS buffer control.
Evaluation and validation of a panel of peptide-specific monoclonal antibodies (mAbs) as a passive immunization strategy protect against invasive C. auris infection in established A/J mouse model of human disease.
The monoclonal antibodies used in this experiment were: • 6H1G8 (IgG2b), α-Hwp1 (Hyphal wall protein) • 3E2G2 (IgG2b), α-Fba (Fructose bisphosphate aldolase) • 10E7E2 (IgG1), α-GPV-P3 (General peptide vaccine 3 from Phosphoglycerate kinase) • 9F2G5 (IgG2a), α-Pgk1 (Phosphoglycerate kinase) • 3H7E3 (IgG1), α-Met6 (Methyltetrahydropteroyltriglutamate)

C. auris = assay: mAb 9F2G5 alone or with antifungal drug in A/J mice with C. auris disseminated candidiasis; assay type: in vivo, Candida auris; conditions: FIG. 18
Method: Method and Material to determine if mAb 9F2G5 (α-Pgk1, IgG2a) can increase antifungal efficacy in A/J mice.
Experimental Groups (Three Mice/Group): • 1. DPBS • 2. Micafungin (0.25 mg/kg/day) • 3. Micafungin (0.5 mg/kg/day) • 4. Micafungin (1.0 mg/kg/day) • 5. 9F2G5 • 6. 9F2G5+Micafungin (0.25 mg/kg/day) • 7. 9F2G5+Micafungin (0.5 mg/kg/day) • 8. 9F2G5+Micafungin (1.0 mg/kg/day) • 9. Fluconazole (25 mg/kg/day) • 10. 9F2G5+Fluconazole (25 mg/kg/day)
Referring to FIG. 18, mAb 9F2G5 used alone or with antifungal drug has therapeutic activity against C. auris disseminated candidiasis.

B1: 9F2G5: mAb 9F2G5 (IgG2a), α-Pgk1 (Phosphoglycerate kinase) peptide (antibody)
heavy: EVHLQQSGPELVKPGASVKISCKTSGYIFTEYTMHWVKQSHGKSLEWIGGINPNNGGTRYNQKFKGKATLTVDKSSSTAYMELRSLTSEDSAVYYCAWYFPYWGQGTLVTVSAAKTTAPSVYPLAPVCGDTTGSSVTLGCLVKGYFPEPVTLTWNSGSLSSGVHTFPAVLQSDLYTLSSSVTVTSSTWPSQSITCNVAHPASSTKVDKKIEPRGPTIKPCPPCKCPAPNLLGGPSVFIFPPKIKDVLMISLSPIVTCVVVDVSEDDPDVQISWFVNNVEVHTAQTQTHREDYNSTLRVVSALPIQHQDWMSGKEFKCKVNNKDLPAPIERTISKPKGSVRAPQVYVLPPPEEEMTKKQVTLTCMVTDFMPEDIYVEWTNNGKTELNYKNTEPVLDSDGSYFMYSKLRVEKKNWVERNSYSCSVVHEGLHNHHTTKSFSRTPGK
light: [gap - about 200 residues]
- fungal burdens in targeted organs (C. auris AR-0386; A/J mouse model, in words): lowest fungal burdens in all organs; also recorded: able to almost clear fungal burden
- protection against C. auris invasive infection (C. auris AR-0386; A/J mouse model, in words): protect against C. auris invasive infection; also recorded: best protection
- survival (C. auris AR-0386; FIG. 15A, A/J mice, 1×10^8 C. auris cells, experiment terminated 40 days post challenge): 50%
- fungal burden in the heart and brain (C. auris AR-0386; FIG. 15B, several mice): non-detectible levels of fungal burden
- survival rate (C. auris AR-0386; FIG. 16, A/J mice, mAb(s) i.p. 24 hours before lethal dose (2×108) of C. auris AR-0386): 40%
- protection as compared to Micafungin alone (C. auris; A/J mice): improved immunoprotection; also recorded: better protection
- fungal burdens (CFUs) in kidney and heart compared to Micafungin alone (C. auris; day 4 post-infection, 9F2G5 i.p. 24 hours before challenge, Micafungin i.p. 24 h post-infection): reduced fungal burdens
